Assay results reported in paper PMC6212790.
The other results are listed elsewhere or left out. At the low end of the ranking the order means little.

Target: T1, GST-Rok-C97-191 (UniProt O34857)
T1 sequence: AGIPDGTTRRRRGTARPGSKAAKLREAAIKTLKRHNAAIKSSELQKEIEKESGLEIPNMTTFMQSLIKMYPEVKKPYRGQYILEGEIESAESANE
Experiment: protein binding microarray;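 further: rank score from −0.5 (least bound) to 0.5 (best bound)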
Settings: Rok is a gene silencer of Bacillus subtilis; high values mean tight binding; most listed sequences are background and not binding sites; double strand, one strand shown

| Sequence | binding signal [E-score] |
| --- | --- |
| CAAACTTA | 0.101 |
| GATGCCAA | -0.209 |
| CATTTAAA | 0.112 |
| AAGCATTA | 0.064 |
| CCCTCCCA | -0.186 |
| AGGAAAAT | 0.177 |
| TACTAGTA | 0.433 |
| CTCCGATA | 0.0895 |
| GGAATGGA | -0.114 |
| CCTCTAGA | -0.0559 |
| ATATGAGC | -0.00733 |
| AACCTATC | 0.152 |
| GGCTGCTA | -0.11 |
| CAACAGCC | -0.261 |
| ACGAATTG | 0.183 |
| GTGGTCGA | -0.197 |
| ACGTAGCG | 0.0725 |
| GGCCAAGA | 0.11 |
| GACCGGAC | -0.126 |
| AAGCCACC | -0.213 |
| AATTGAAT | 0.0946 |
| GCACGAAC | -0.164 |

| Sequence | binding signal [E-score] |
| --- | --- |
| CTGGCGGA | -0.283 |
| ACACCTAC | 0.0429 |
| GCCCAAGC | -0.319 |
| CGACTACC | 0.000144 |
| CACGGGGC | -0.279 |
| TGAGGCAA | -0.148 |
| CATGACGA | 0.043 |
| TCCAAGGA | 0.068 |
| GGGATGCA | -0.184 |
| ACCACACG | 0.161 |
| CGTACTTA | 0.23 |
| GATCCCGA | -0.0184 |
| CGCGCGAA | 0.0798 |
| GCTGTAGA | -0.0314 |
| GCTATGTA | 0.226 |
| CTTCCTAC | 0.0841 |
| CGCGGAGA | -0.25 |
| ATACCGTA | 0.276 |
| AGACGGAA | -0.125 |
| GTCATCTA | 0.062 |
| GCGTTAGA | 0.0324 |
| CAGAGCTC | -0.157 |

| Sequence | binding signal [E-score] |
| --- | --- |
| GCAATATA | 0.224 |
| CTTTAAGC | 0.00949 |
| AGTCTAAC | 0.0311 |
| AGGATCAC | -0.0797 |
| GGATAGGA | 0.012 |
| CAATCCAC | -0.074 |
| CCCTAATC | -0.0259 |
| ACTGTGGC | -0.225 |
| AGCCTACA | 0.00191 |
| CCCTTTCG | -0.277 |
| ACCAAGGC | -0.154 |
| ATGCCACC | -0.123 |
| CAGTTGAC | 0.0118 |
| CAGACATG | -0.197 |
| GAACTAGC | 0.205 |
| ACCTATTG | 0.2 |
| ATGGCTTA | -0.00631 |
| CTTGCTTC | -0.269 |
| CGCGTTCA | -0.0369 |
| AACGTCCA | -0.202 |
| GGGCGGAC | -0.368 |
| CGTTTAAA | -0.14 |

| Sequence | binding signal [E-score] |
| --- | --- |
| AACGCTCT | -0.0799 |
| GACAGTGC | -0.306 |
| GTAGCACA | 0.0948 |
| AAAGCCAG | -0.0469 |
| AAACCGTC | -0.0773 |
| GGCCTCCA | -0.323 |
| TGACATCA | -0.115 |
| GAACGTTC | 0.053 |
| GGCGTACC | -0.176 |
| CGGGCTGC | -0.268 |
| CGACTGCC | -0.232 |
| ACGAATAA | -0.0222 |
| AAAGACGA | 0.0425 |
| GCAATGTA | 0.23 |
| GAGCAGAC | -0.089 |
| CTGAGTGA | -0.127 |
| CGGATGAG | -0.141 |
| ACCGATAC | 0.0875 |
| ACTCTCTA | -0.0467 |
| CTCTCAGC | -0.3 |
| CTTGAGGC | -0.211 |
| AGGAGATC | -0.0805 |
